From paper PMC9303311 (Nucleic Acids Research, 2022)

Experiments:
[1] = target: the molecule itself; assay: cross-linking
[2] = target: the molecule itself; assay: cross-linking; remark: listed apart in the source

| Protein | half-life of tetramer dissociation [1] | stoichiometry N [1] | half-life of tetramer dissociation with ssDNA [2] |
| --- | --- | --- | --- |
| Human SAMHD1 Δ[…] (C-terminal truncation lacking Thr592) (domain or fragment) not shown | ~4.2 min | 4 |  |
| Human SAMHD1 Δ[…] (C-terminal truncation retaining Thr592) (domain or fragment) not shown | 260 min | 4 |  |
| Human SAMHD1 T592E (phosphomimetic variant), full length (enzyme) not shown | ~8.8 min | 4 | 1.6 min |
